# PMC4336329 (PLoS ONE, 2015)
# The campaign covered roughly 310,000 compounds. About 2,200 (0.71%) showed an effect of 50% or more. Effects have a minus sign here. The list shows a part of the results.
# Target: human ether-à-go-go-related gene (hERG) potassium channel (human, UniProt Q12809)
# Test: primary screen, population patch clamp on CHO cells stably expressing hERG
# Chain of human ether-à-go-go-related gene (hERG) potassium channel (Q12809 whole entry, looked up): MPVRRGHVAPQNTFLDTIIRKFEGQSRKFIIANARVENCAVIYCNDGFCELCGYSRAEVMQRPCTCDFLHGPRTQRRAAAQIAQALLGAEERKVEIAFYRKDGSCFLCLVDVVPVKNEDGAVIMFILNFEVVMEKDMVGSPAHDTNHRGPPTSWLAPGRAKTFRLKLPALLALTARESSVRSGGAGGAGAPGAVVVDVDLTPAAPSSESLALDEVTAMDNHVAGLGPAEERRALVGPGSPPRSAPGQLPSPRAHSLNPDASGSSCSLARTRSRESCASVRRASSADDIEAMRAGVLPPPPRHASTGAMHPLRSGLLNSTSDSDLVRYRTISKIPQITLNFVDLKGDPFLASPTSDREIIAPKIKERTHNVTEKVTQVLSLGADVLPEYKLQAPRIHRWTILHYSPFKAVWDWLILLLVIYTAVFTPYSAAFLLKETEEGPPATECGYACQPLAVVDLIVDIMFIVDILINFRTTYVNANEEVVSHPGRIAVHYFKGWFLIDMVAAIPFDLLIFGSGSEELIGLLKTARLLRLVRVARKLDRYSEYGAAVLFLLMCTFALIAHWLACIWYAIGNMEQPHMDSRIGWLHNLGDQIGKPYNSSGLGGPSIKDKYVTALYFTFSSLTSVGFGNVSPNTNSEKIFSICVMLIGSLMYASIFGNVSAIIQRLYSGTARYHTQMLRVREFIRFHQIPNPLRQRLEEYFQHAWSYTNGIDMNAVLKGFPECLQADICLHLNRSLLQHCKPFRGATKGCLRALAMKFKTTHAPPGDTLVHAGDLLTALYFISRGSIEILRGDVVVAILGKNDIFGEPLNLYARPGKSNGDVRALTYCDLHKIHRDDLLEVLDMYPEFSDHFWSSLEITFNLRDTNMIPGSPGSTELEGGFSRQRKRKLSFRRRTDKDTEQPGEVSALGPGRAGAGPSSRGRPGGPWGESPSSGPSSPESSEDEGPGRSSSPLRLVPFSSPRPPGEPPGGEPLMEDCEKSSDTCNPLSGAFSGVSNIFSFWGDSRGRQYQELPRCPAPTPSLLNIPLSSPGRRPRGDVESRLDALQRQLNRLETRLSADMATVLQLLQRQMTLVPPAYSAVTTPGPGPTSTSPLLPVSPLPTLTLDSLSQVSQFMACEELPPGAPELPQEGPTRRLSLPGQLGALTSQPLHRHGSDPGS
row,Structure (SMILES),"hERG current change (%, negative = inhibition) at 1uM [%]"
1,CC1CN(C(=O)c2ccc(S(=O)(=O)Nc3ccccc3F)cc2)CC(C)O1 (centres unmarked),9.45
2,CC1CN(CC(O)COc2ccc(C(C)C)cc2)CC(C)O1.Cl (centres unmarked),5.14
3,COc1cc(/C=N/Nc2nc3ccccc3s2)cc([N+](=O)[O-])c1O,1.77
4,S=c1[nH]nc(-c2cccnc2)n1C1CCCCC1,14.9
5,Cc1ccc(NC(=S)N2C3CCCC2CC(NC(=O)C2CC2)C3)cc1C (centres unmarked),1.33
6,C/C(CC(=O)Nc1ccc(C)c(Cl)c1)=N\NC(=O)c1ccccn1,14.1
7,Cc1ccccc1CN1CCN(CC(=O)NCc2ccccc2)C1=O,2.94
8,Cc1ccc(/C=C/C2=Cc3c(sc(NC(=O)CSc4n[nH]c(N)n4)c3C#N)C(C)(C)C2)o1,13.5
9,COc1ccc(-c2cc(=O)oc3cc(OCC(=O)N(C)C)ccc23)cc1,14
10,O=C(NCCN1CCCC1)c1ccc2c(=O)n(CCc3ccccc3)c(=O)[nH]c2c1,13.3
11,Cc1ccc(C)n1-c1ccncc1,7.33
12,CCCCn1c(N)c(N(CC(C)C)C(=O)C2=COCCO2)c(=O)[nH]c1=O,11.4
13,COC(=O)CCCC1=CC2=CC(=O)C(C)(OC(=O)c3cccs3)C(=O)C2=CN1CCc1ccccn1 (centres unmarked),4.18
14,CCc1nnc(NC(=O)CCC(=O)N2CCN(c3ccccn3)CC2)s1,5.05
15,CC1N=C(c2ccccc2Cl)c2cc(Br)ccc2NC1=O (centres unmarked),3.65
16,CC(=O)N1CCN(c2ccc(NC(=O)c3ccc(Cl)c(Cl)c3)cc2)CC1,3.47
17,COc1ccc(Nc2nc(C)cc(C)c2C(N)=O)cc1OC,14.8
18,COc1ccc(C2CC(c3ccccc3OC(C)=O)=NN2C(C)=O)cc1 (centres unmarked),5.35
19,Cn1cc(C(=O)OCC(=O)N2CCCCC2)c2ccccc21,16
20,Cc1ncoc1C(=O)N1CCCC(N2CCN(c3cccc(C(F)(F)F)c3)CC2)C1 (centres unmarked),-2.29
21,O=C(NC1=C(Nc2ccc(F)cc2)C(=O)c2ccccc2C1=O)c1ccc(Cl)cc1,15.1
22,CC(Cc1cccs1)NC(=O)Nc1ccccc1 (centres unmarked),9.58

row,Structure (SMILES),"hERG current change (%, negative = inhibition) at 1uM [%]"
1,COc1cc(/C=C/C(=O)OCC(=O)c2ccc3c(c2)NC(=O)CO3)ccc1OC(F)F,8.13
2,COc1ccc(-n2cnnc2SCCC#N)cc1,6.01
3,COc1cccc(NC(=O)N2CCN(C(=O)C(Cc3ccc(OC)c(OC)c3)NC(C)=O)CC2)c1 (centres unmarked),2.72
4,O=C(O)c1ccccc1SCC(=O)N1CCCCC1,3.22
5,O=C(Nc1ccccn1)c1cccc(S(=O)(=O)N2CCCC2)c1,5.14
6,O=C(Nc1cccnc1)c1ccc2c(c1)OCO2,12.2
7,CCOC(=O)C1=C(C)N=C2c3ccccc3C(=O)C2C1c1ccccc1 (centres unmarked),4.87
8,CC(=O)N1CCN(c2ccc(Oc3nnnn3-c3ccccc3)cc2)CC1,-13.8
9,c1ccc2c(CCNc3ncnc4nc[nH]c34)cccc2c1,-0.797
10,Cc1ccc2[nH]c(O)c(N=O)c2c1,7.8
11,CCOc1ccc(NC(=O)CN(c2ccc(OC)c(OC)c2)S(=O)(=O)c2ccc(C)cc2)cc1,17.1
12,CCN1CCN(C(=O)C2CCC(=O)N(CCCN3CCCC3=O)C2)CC1 (centres unmarked),3.96
13,COc1ccc(C2C(C#N)=C(N)OC3=C2C(=O)CC(C)(C)C3)cc1 (centres unmarked),12.7
14,COc1cc(CC(=O)NCc2ccc3c(c2)OCO3)cc(OC)c1OC,15
15,CCc1ccc2c(c1)/C(=C/C(=O)c1cccs1)C(=O)N2,12.8
16,Cc1cc(C(=O)N2CCCC(N3CCN(c4cccc(C(F)(F)F)c4)CC3)C2)c(C)o1 (centres unmarked),5.61
17,O=C(O)CSc1cccc2cccc(C(=O)O)c12,7.81
18,CC(C)Nc1nc(NC(C)C)nc(OCCOC(=O)c2ccccc2)n1,-3.48
19,CC1CCCN(C(=O)c2ccc(NS(=O)(=O)c3ccc4[nH]c(=O)[nH]c4c3)cc2)C1 (centres unmarked),12.5
20,COc1cc(NC(=S)NN2CCN(C)CC2)cc(OC)c1,12.3
21,CCOC(=O)C1CCN(C(=O)c2cc(OCC)c(OCC)c(OCC)c2)CC1,0.754
22,O=C(C1=C(O)C(=O)N(Cc2ccco2)C1c1ccccc1F)c1cccs1 (centres unmarked),15.4
